According to the supplement of paper PMC11876631:
Changes are numbered by the printed parent chain. In names and notes the source's numbering stands. ± gives the standard deviation of the averaged measurements. Laboratory Escherichia coli strains with one amino-acid change in an essential protein, pooled on minimal glucose agar with carbenicillin or gentamicin at twice the control MIC (plus kanamycin and chloramphenicol for the plasmids), 48 h. Fold change of barcode share against drug-free plates; higher = less susceptible. Active = above 20 in both replicates (the paper's putatively resistant). '<' = one read or none on drug, '>' = one read or none on a drug-free plate. Shares are relative, so most strains fall below 1 when a few take over. Listed are strains with at least 15 reads on both drug-free plates, and hits; most hits rest on fewer reference reads. Replicate rank correlation about 0.5. Edits are read from barcodes.

B1: cdsA L221P (protein)
chain: MLKYRLISAFVLIPVVIAALFLLPPVGFAIVTLVVCMLAAWEWGQLSGFTTRSQRVWLAVLCGLLLALMLFLLPEYHRNIHQPLVEISLWASLGWWIVALLLVLFYPGSAAIWRNSKTLRLIFGVLTIVPFFWGMLALRAWHYDENHYSGAIWLLYVMILVWGADSGAYMFGKLFGKHKLAPKVSPGKTWQGFIGGLATAAVISWGYGMWANLDVAPVTLPICSIVAALASVLGDLTESMFKREAGIKDSGHLIPGHGGILDRIDSLTAAVPVFACLLLLVFRTL
B2: cdsA L236A (protein)
chain: B1 chain with P221L, L236A
B3: coaD L113A (protein)
chain: MQKRAIYPGTFDPITNGHIDIVTRATQMFDHVILAIAASPSKKPMFTLEERVALAQQATAHLGNVEVVGFSDLMANFARNQHATVLIRGLRAVADFEYEMQLAHMNRHLMPEAESVFLMPSKEWSFISSSLVKEVARHQGDVTHFLPENVHQALMAKLA
B4: coaD L113Q (protein)
chain: B3 chain with A113Q
B5: coaD L34A (protein)
chain: B3 chain with L34A, A113L
B6: coaD L34W (protein)
chain: B3 chain with L34W, A113L
B7: accD V120A (protein)
chain: MSWIERIKSNITPTRKASIPEGVWTKCDSCGQVLYRAELERNLEVCPKCDHHMRMTARNRLHSLLDEGSLVELGSELEPKDVLKFRDSKKYKDRLASAQKETGEKDALVVMKGTLYGMPAVAAAFEFAFMGGSMGSVVGARFVRAVEQALEDNCPLICFSASGGARMQEALMSLMQMAKTSAALAKMQERGLPYISVLTDPTMGGVSASFAMLGDLNIAEPKALIGFAGPRVIEQTVREKLPPGFQRSEFLIEKGAIDMIVRRPEMRLKLASILAKLMNLPAPNPEAPREGVVVPPVPDQEPEA
B8: coaD L34Q (protein)
chain: B3 chain with L34Q, A113L
B9: coaD L34D (protein)
chain: B3 chain with L34D, A113L
B10: accD V120W (protein)
chain: B7 chain with A120W

Biological target: Escherichia coli (laboratory strain)
Assay: barcode share on antibiotic plates over drug-free plates; higher = less susceptible
Description: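 A pool of E. coli strains, each edited to carry one amino-acid change in an essential protein, was grown for 48 h on minimal glucose agar with or without antibiotic; strain barcodes were sequenced; mean of two replicates.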

[1] = antibiotic: carbenicillin, 2× MIC (3.1 µg/mL)
[2] = antibiotic: gentamicin, 2× MIC (MIC 0.45 µg/mL)

Row | Protein | fold change of barcode share [1] | fold change of barcode share [2]
1 | B1 | 0.246 ± 0.058 | 0.00679 ± 0.0042
2 | B2 | 0.716 ± 0.72 | –
3 | B3 | 0.231 ± 0.053 | < 0.00618
4 | B4 | 0.275 ± 0.063 | < 0.00561
5 | B5 | 0.323 ± 0.05 | < 0.0152
6 | B6 | 0.178 ± 0.036 | < 0.00847
7 | B7 | 0.48 ± 0.042 | < 0.00394
8 | B8 | 0.163 ± 0.022 | < 0.00519
9 | B9 | 0.184 ± 0.091 | < 0.0111
10 | B10 | 0.555 ± 0.12 | –
